Source: PMC4336329 (PLoS ONE, 2015)
About 2,200 (0.71%) of roughly 310,000 compounds showed an effect of 50% or more. Effects have a minus sign here. The list shows a part of the results.

The molecules below were run against human ether-à-go-go-related gene (hERG) potassium channel (human, UniProt Q12809) (assay: primary screen, population patch clamp on CHO cells stably expressing hERG).
human ether-à-go-go-related gene (hERG) potassium channel, sequence (Q12809 whole entry, looked up): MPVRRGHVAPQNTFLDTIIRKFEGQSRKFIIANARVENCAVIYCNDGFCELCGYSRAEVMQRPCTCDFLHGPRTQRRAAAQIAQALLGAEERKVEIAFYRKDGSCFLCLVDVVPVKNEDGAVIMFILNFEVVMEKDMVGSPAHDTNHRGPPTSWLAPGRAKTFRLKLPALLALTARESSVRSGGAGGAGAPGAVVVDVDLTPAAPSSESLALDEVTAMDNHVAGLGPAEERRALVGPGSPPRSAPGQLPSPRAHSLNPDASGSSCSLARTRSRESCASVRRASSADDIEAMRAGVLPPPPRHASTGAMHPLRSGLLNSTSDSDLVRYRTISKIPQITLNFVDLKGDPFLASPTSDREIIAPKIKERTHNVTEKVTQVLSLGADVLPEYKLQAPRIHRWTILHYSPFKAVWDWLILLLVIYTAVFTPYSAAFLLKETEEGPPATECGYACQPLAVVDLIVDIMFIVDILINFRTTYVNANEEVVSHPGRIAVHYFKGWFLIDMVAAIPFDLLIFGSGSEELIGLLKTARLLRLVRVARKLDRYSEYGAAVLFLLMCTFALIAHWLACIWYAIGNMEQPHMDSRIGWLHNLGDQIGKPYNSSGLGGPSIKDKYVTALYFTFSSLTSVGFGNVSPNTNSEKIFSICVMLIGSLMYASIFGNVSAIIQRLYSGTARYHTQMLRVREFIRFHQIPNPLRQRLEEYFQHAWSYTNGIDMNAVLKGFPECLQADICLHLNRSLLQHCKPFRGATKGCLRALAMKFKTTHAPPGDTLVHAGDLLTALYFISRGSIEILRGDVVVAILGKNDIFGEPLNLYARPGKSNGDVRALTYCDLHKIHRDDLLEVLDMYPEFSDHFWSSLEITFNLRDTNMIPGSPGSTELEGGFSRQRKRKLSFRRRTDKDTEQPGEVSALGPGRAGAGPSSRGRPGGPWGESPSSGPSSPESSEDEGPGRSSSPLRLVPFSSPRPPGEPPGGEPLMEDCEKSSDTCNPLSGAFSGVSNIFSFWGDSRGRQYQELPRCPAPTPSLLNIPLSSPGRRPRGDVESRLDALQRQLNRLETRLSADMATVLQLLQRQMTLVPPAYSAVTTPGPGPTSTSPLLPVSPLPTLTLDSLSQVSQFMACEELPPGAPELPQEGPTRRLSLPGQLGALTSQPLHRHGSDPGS

Structure (SMILES) | hERG current change (%, negative = inhibition) at 1uM [%]
CCN(CC)S(=O)(=O)c1ccc(NC=C(C#N)C#N)cc1 | 10.8
Cn1c(=O)c(C(=O)N2CCc3ccccc32)cc2cccnc21 | 4.08
C=CCc1c(C)nc(-c2ccccc2)nc1N/N=C(\C)c1ccc(N)cc1 | 8.46
Cc1cccc(NC(=O)Nc2cnccn2)c1 | 14.7
CC(CCc1ccccc1)NC(=O)Cc1ccccc1 (stereo not drawn) | 16.4
O=C(CNC(=O)OCc1ccccc1)Nc1ccc(Br)cc1C(=O)c1ccccc1 | 0.0793
Cn1c(-c2ccc(F)c(F)c2)cc2onc(-c3ccccc3)c2c1=O | -9.42
COc1cc(C(=O)Nc2cccc(-n3cnnn3)c2)cc(OC)c1OC | 19
COC(=O)Cc1[nH]nc2c1C1(CCSCC1)C(C#N)=C(N)O2 | 9.38
CC(C)OC(=O)c1ccc(Cn2nnc3ccccc3c2=O)cc1 | 1.12
COc1cc2c(cc1OC)CN(C(=O)COc1ccccc1[N+](=O)[O-])CC2 | 9.5
CCN(CC)C(=O)CSc1nc2cc(OC)c(OC)cc2c(=O)n1Cc1ccc(Cl)cc1 | -1.58
CCC1C(C#N)=C(N)Oc2c1c(=O)oc1ccccc21 (stereo not drawn) | 17.8
COc1ccc(-n2c(SCC(N)=O)nc3sc4c(c3c2=O)CCC4)cc1 | -3.69
Clc1ccc(-c2csc(N/N=C\c3cccnc3)n2)cc1 | 13.2
CCC(c1nnc(SCC(=O)Nc2ccc(NC(C)=O)cc2)n1Cc1ccccc1)N(C)C (stereo not drawn) | 8.82
COc1ccc(CN2CCCC2C(=O)Nc2ccc(OC)c(OC)c2)cc1OC (stereo not drawn) | 14.2
Cc1onc(-c2c(Cl)cccc2Cl)c1C(=O)OCC(=O)c1ccccc1 | 12.8
COc1ccc(/C=C2/CCCC(C(=O)C(F)(F)F)=C2O)cc1OC | 5.85
Cc1cc(C)n2nc(SCc3cccc(S(=O)(=O)N(C)C)c3)nc2n1 | 11.5
Cc1ccccc1NC(=O)c1ccc2c(c1)C(=O)N(CCC(C)C)C2=O | -2.02
CCN(c1ccccc1)c1nc2ccsc2c(=O)s1 | 13.2
CN(C)c1ccc(C2N3CC4(C)CN2CC(C)(C3)C4O)cc1 (stereo not drawn) | 12.7

Structure (SMILES) | hERG current change (%, negative = inhibition) at 1uM [%]
C=CCOc1c(Cl)cc(CNCCCN2CCOCC2)cc1OC.Cl | -0.304
COC(=O)Nc1cc(C(F)(F)F)ccc1N1CCN(c2ccccc2)CC1 | 10.7
O=C1CC(/C=C/c2ccccc2)(C(=O)NC2CCCC2)N1c1ccc(S(=O)(=O)N2CCCC2)cc1 (stereo not drawn) | 0.462
COc1cc(OC)cc(C(=O)Nc2cccc3nc(C)ccc23)c1 | 12.6
COc1ccc(/C=C/C(=O)N2CCN(c3ccccn3)CC2)cc1 | 2.77
Cc1cc(C(=O)O)ccc1NCc1cccnc1 | 14.7
O=C(Nc1ccc(N2CCOCC2)cc1N1CCOCC1)c1ccc([N+](=O)[O-])cc1Cl | 3.39
O=c1cc(CN2CCN(S(=O)(=O)c3ccc4c(c3)OCCO4)CC2)c2ccc(O)cc2o1 | 6.77
Cl.N=c1ccn(Cc2ccc(Cl)c(Cl)c2)cc1 | 8.61
O=c1c(Br)c(NCc2ccccc2)cnn1-c1ccc(F)cc1 | 8.92
COc1ccc(N2C(=O)/C(=C\c3ccco3)N=C2SCC(=O)NC(C)(C)C)cc1Cl | 5.77
CN(CC1CCCO1)S(=O)(=O)c1ccc(C(=O)Nc2ccc(S(N)(=O)=O)cc2)cc1 (stereo not drawn) | 8.34
COc1ccc(NC(=S)N2CCCCC2c2cccnc2)cc1 (stereo not drawn) | 12.2
Cc1nc(NS(=O)(=O)c2ccccc2)sc1NC(=O)OCCN(C)C | 10.3
Cc1cccc(NCc2ccc([N+](=O)[O-])s2)c1 | 8.63
Cc1nc(Nc2ccc(C(=O)O)cc2)nc(Nc2ccc(C(=O)O)cc2)c1[N+](=O)[O-] | 14.6
CCCCn1c(O)c(C=NCCCn2ccnc2)c(=O)[nH]c1=O | 13.2
O=C(c1ccc([N+](=O)[O-])cc1)N1CCN(c2ncccn2)CC1 | -40.7
Cc1nn(C)c(C)c1C(=O)NN | 13
Cc1c(C(=O)Nc2ccc(Oc3ccccc3)cc2)sc2nc3n(c(=O)c12)CCC3 | -3.64
CCOc1ccccc1NC(=O)CSc1nnc(CNC(=O)c2ccco2)o1 | 2.39
COc1ccc(Cl)cc1-c1n[nH]c(=S)n1Cc1ccccc1 | 17
